Results: the supplement of paper PMC12578646, “Prodrug florfenicol amine is activated by intrinsic resistance to target Mycobacterium abscessus” (Nature Microbiology, 2025)
M. abscessus ATCC 19977 and its deletion, point and complemented mutants after 5 days of drug at 37 °C plus 24 h of resazurin. Growth in % of untreated wells at the dose given (lower = more inhibition); checkerboards give % inhibition (higher = more inhibition); IC50 from the fitted curve (lower = more potent). No active / inactive call. IC50 values come from the same 384-well curves. Growth is not capped and can exceed 100%. The direction of the checkerboard scale is read from the raw signals. Capreomycin is a mixture.

Legend:
Assay in all cases: growth relative to untreated wells; higher = more growth (less inhibition)
[1] = test system: Mycobacterium abscessus ATCC 19977 WhiB7 T70fs
Procedure: (§1)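 384-well two-fold dose series, two replicates; 5 days at 37 °C, then 24 h with resazurin; fluorescence scaled to growth and killed controls.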

[2] = test system: Mycobacterium abscessus ATCC 19977
Procedure: as §1

[3] = test system: Mycobacterium abscessus ATCC 19977 Δeis2
Procedure: as §1

[4] = test system: Mycobacterium abscessus ATCC 19977 Eis2 Y227D
Procedure: as §1

[5] = test system: Mycobacterium abscessus ATCC 19977 ΔwhiB7
Procedure: as §1

[6] = test system: Mycobacterium abscessus ATCC 19977 WhiB7 L37P
Procedure: as §1

[7] = test system: Mycobacterium abscessus ATCC 19977 Eis2 T258R
Procedure: as §1

[8] = test system: Mycobacterium abscessus ATCC 19977 Eis2 Y284*
Procedure: as §1

[9] = test system: Mycobacterium abscessus ATCC 19977 Eis2 E120fs
Procedure: as §1

[10] = test system: Mycobacterium abscessus ATCC 19977 WhiB7 F24fs
Procedure: as §1

[11] = test system: Mycobacterium abscessus ATCC 19977 WhiB7 R76del
Procedure: as §1

[12] = test system: Mycobacterium abscessus ATCC 19977 Eis2 Y255*
Procedure: as §1

CNC1CC(N)C(O)C(OC2OC(CO)C(O)C3OC4(OC(C(N)CO)C(O)C(O)C4O)OC23)C1O (centres undefined) [hygromycin B]
Settings | growth [%]
[1], 0.5 µg/mL | 101
[1], 1 µg/mL | 110
[1], 2 µg/mL | 111
[1], 4 µg/mL | 114.1
[1], 8 µg/mL | 53.2
[1], 16 µg/mL | -3.57
[1], 32 µg/mL | -3.56
[1], 64 µg/mL | -3.95
[1], 128 µg/mL | -3.72
[1], 256 µg/mL | -3.06
[1], 512 µg/mL | -2.71
[1], 1024 µg/mL | -1.51
[2], 0.5 µg/mL | 110
[2], 1 µg/mL | 114
[2], 2 µg/mL | 112.6
[2], 4 µg/mL | 116.1
[2], 8 µg/mL | 112.6
[2], 16 µg/mL | 117
[2], 32 µg/mL | 122
[2], 64 µg/mL | 131
[2], 128 µg/mL | 40.8
[2], 256 µg/mL | 4.38
[2], 512 µg/mL | 0.201
[2], 1024 µg/mL | 0.803
[3], 0.5 µg/mL | 105
[3], 1 µg/mL | 106
[3], 2 µg/mL | 105
[3], 4 µg/mL | 118.7
[3], 8 µg/mL | 130
[3], 16 µg/mL | 8.001
[3], 32 µg/mL | -0.7129
[3], 64 µg/mL | -2.14
[3], 128 µg/mL | -2.6
[3], 256 µg/mL | -1.85
[3], 512 µg/mL | -1.18
[3], 1024 µg/mL | -0.106
[4], 0.5 µg/mL | 113
[4], 1 µg/mL | 113
[4], 2 µg/mL | 108
[4], 4 µg/mL | 120
[4], 8 µg/mL | 135.35
[4], 16 µg/mL | 20.7
[4], 32 µg/mL | 1.31
[4], 64 µg/mL | 0.0666
[4], 128 µg/mL | -0.296
[4], 256 µg/mL | 0.513
[4], 512 µg/mL | 0.899
[4], 1024 µg/mL | 2.05
[5], 0.5 µg/mL | 112
[5], 1 µg/mL | 113
[5], 2 µg/mL | 112
[5], 4 µg/mL | 148
[5], 8 µg/mL | 9.1
[5], 16 µg/mL | -2.4
[5], 32 µg/mL | -2.93
[5], 64 µg/mL | -3.54
[5], 128 µg/mL | -3.95
[5], 256 µg/mL | -2.8
[5], 512 µg/mL | -2.94
[5], 1024 µg/mL | -1.98
[6], 0.5 µg/mL | 111
[6], 1 µg/mL | 120
[6], 2 µg/mL | 118
[6], 4 µg/mL | 125.5
[6], 8 µg/mL | 48.2
[6], 16 µg/mL | -0.664
[6], 32 µg/mL | -0.825
[6], 64 µg/mL | -1.52
[6], 128 µg/mL | -1.91
[6], 256 µg/mL | -0.602
[6], 512 µg/mL | -1
[6], 1024 µg/mL | 1.02
[7], 0.5 µg/mL | 107.5
[7], 1 µg/mL | 116
[7], 2 µg/mL | 106.31
[7], 4 µg/mL | 113
[7], 8 µg/mL | 129
[7], 16 µg/mL | 11.2
[7], 32 µg/mL | -0.755
[7], 64 µg/mL | -1.78
[7], 128 µg/mL | 0.817
[7], 256 µg/mL | -1.65
[7], 512 µg/mL | -1.38
[7], 1024 µg/mL | -0.853
[8], 0.5 µg/mL | 110
[8], 1 µg/mL | 110.7
[8], 2 µg/mL | 115
[8], 4 µg/mL | 119
[8], 8 µg/mL | 124
[8], 16 µg/mL | 18.2
[8], 32 µg/mL | 0.473
[8], 64 µg/mL | -1.86
[8], 128 µg/mL | -1.77
[8], 256 µg/mL | -1.15
[8], 512 µg/mL | -0.565
[8], 1024 µg/mL | -0.0914
[9], 0.5 µg/mL | 111
[9], 1 µg/mL | 115
[9], 2 µg/mL | 118
[9], 4 µg/mL | 126.52
[9], 8 µg/mL | 135
[9], 16 µg/mL | 27.8
[9], 32 µg/mL | 1.78
[9], 64 µg/mL | 1.21
[9], 128 µg/mL | -1.18
[9], 256 µg/mL | 0.0283
[9], 512 µg/mL | -0.843
[9], 1024 µg/mL | 0.809
[10], 0.5 µg/mL | 107
[10], 1 µg/mL | 117.1
[10], 2 µg/mL | 112
[10], 4 µg/mL | 110.7
[10], 8 µg/mL | 51.9
[10], 16 µg/mL | -0.289
[10], 32 µg/mL | -0.807
[10], 64 µg/mL | -1.12
[10], 128 µg/mL | -0.973
[10], 256 µg/mL | -1.06
[10], 512 µg/mL | -0.468
[10], 1024 µg/mL | 0.591
[11], 0.5 µg/mL | 111.5
[11], 1 µg/mL | 115
[11], 2 µg/mL | 113
[11], 4 µg/mL | 117.5
[11], 8 µg/mL | 52.4
[11], 16 µg/mL | -0.305
[11], 32 µg/mL | 3.21
[11], 64 µg/mL | 2.97
[11], 128 µg/mL | -1.6
[11], 256 µg/mL | -1.1
[11], 512 µg/mL | -0.788
[11], 1024 µg/mL | 0.494
[12], 0.5 µg/mL | 119
[12], 1 µg/mL | 121
[12], 2 µg/mL | 115.5
[12], 4 µg/mL | 121
[12], 8 µg/mL | 130
[12], 16 µg/mL | 18.9
[12], 32 µg/mL | -1.62
[12], 64 µg/mL | -3.1
[12], 128 µg/mL | -2.94
[12], 256 µg/mL | -2.49
[12], 512 µg/mL | 0.338
[12], 1024 µg/mL | -1.03
